This is one part of the list.

We go through 55 sequences from the supplement of paper PMC11417369.

In the test the test system is PF3D7_0420300 AP2 domain 1 (GST-tagged). Put plainly: gcPBM binding intensity (ln(normalized median fluorescence intensity)); higher = stronger DNA binding. In short, it runs like this: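 DNA-binding domains from P. falciparum, fused to GST and produced in E. coli, were put on an Agilent 4 × 180k double-stranded probe array for 1 h in 1× PBS holding 1% milk, 0.2 mg/ml BSA, 0.5% salmon testes DNA and 0.03% Triton X-100. Probes were primer-extended, 36 bp long and drawn from intergenic genomic regions, with negative controls included. After Alexa488 anti-GST antibody detection and a 488 nm scan, binding intensity was set as the highest Masliner-normalised natural-log median intensity across replicate spots of either probe orientation.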
In the case of “AATATTTATGTGAAGACACACAACTGTTTATTATAT [CACACA_site3447]”, the “gcPBM binding intensity (ln)” value came to 9.48. For “TTATATGCTCAATGTTGTACATGTAGATATATATAT [XGTACX_site8211]” the value was 9.13.

Consider “ATATATATATATAGTGCACACATATAAAATATATAT [CACACA_site8884]”, for which the “gcPBM binding intensity (ln)” value amounted to 9.38. The same measure for “ATCTGTCGACAGGACAGTACACAGTAGCCAGTAACT [XGTACX_site2001]”: 9.23; for “AAGTATGTCGACTGTTGTACTTTTATCATTTATTAT [XGTACX_site1129]”: 9.45; for “ATATACTATGATAATACATGCGATAATACATTTTTA [TGCATGCA_site387]”: 9.23. For “GTATGGCGTATCATATGTACTAAAAAAAAATAAAAA [XGTACX_site5101]” the value was 8.9; for “TATTTATCATCATATTGTACATTATATATATAAAAT [XGTACX_site6675]”, 9.15; for “AATAAAAAAATGTCACGTACTTATTTTATTAAACCT [XGTACX_site3031]”, 9.15. Regarding “ATGGAAATATATACATGTACATAAATATATATATAT [XGTACX_site8391]”, the “gcPBM binding intensity (ln)” value came out at 9.33. Turning to “ATGTTTTGCATATATTATATATTTATTTATTTTTTT [CACACA_negctrl_site729]”, the “gcPBM binding intensity (ln)” value came to 9.35. Turning to “AGTGGACTTTTTTTTTTTTTTTTTTTTTTTTTATTA [CACACA_negctrl_site547]”, the “gcPBM binding intensity (ln)” value was 9.2. For “AGTAGTCTGGAGAAGAGTACATAGTATCTGGTAACC [XGTACX_site2043]”, the “gcPBM binding intensity (ln)” value amounted to 9.2. For “AGAGAGATGACAAAAAGATGAATAACGTTAAGGGAT [XGTACX_negctrl_site120]” the value was 9.91; for “TATTTATTGTGATACTTATATTATTTTATGATTAAA [CACACA_negctrl_site901]”, 9.07. As for “ATAAAATATAGATGCACACACATATAGATTTCATAC [CACACA_site7636]”, the “gcPBM binding intensity (ln)” value worked out at 9.81. The same measure for “TGTATATTTTTTATTACACACTTTTTACTTTTTAGA [CACACA_site3069]”: 9.38. The same measure for “TTTTTTAATTGTGATACGTATATTATTTAATGATAA [GTGCAC_negctrl_site704]”: 9.13; for “AGTATATACACGTGCGTGCACAGATATTCTTTTTTT [GTGCAC_site9398]”: 9.3; for “GATATAATTATATTATGGTGTTTTTGATAGATATTT [GTGCAC_negctrl_site313]”: 9.37. For “ATCAAACCATAAAAGAGTACAAAAGGATGATATTTT [XGTACX_site8883]” the value was 9.43.

As to “TATTTTAAAGAGAAAACATGCATTATATAGAACATT [TGCATGCA_site328]”, the “gcPBM binding intensity (ln)” value was 9.21.

For the sequence “ATATAAATAAAATATACACACATACTGTTCATTTAA [CACACA_site7880]”, the “gcPBM binding intensity (ln)” value worked out at 9.48. On to “TTTTTTTTTTATTTTGCACACTTCTAATTTAGTTCT [CACACA_site5828]”, for which the “gcPBM binding intensity (ln)” value turned out to be 9.45.

On to “AAGTTAATGAAAAAATGTACCCAGAGTATTTTAAAA [XGTACX_site2997]”, for which the “gcPBM binding intensity (ln)” value stood at 9.28. The same measure for “AAAAAAAAAAAAGATTGTACAGAATACTTTTAAAAT [XGTACX_site3576]”: 8.99; for “TTGTTTTTCTTTGAATGTACTTAATGATTTCCAATT [XGTACX_site2499]”: 9.31; for “TCCATATATTTTAAAAGTACACATAAAAATTATTTA [XGTACX_site8127]”: 8.93. For the sequence “AATGGAAAAATAGGCACACACACATATATACATATA [CACACA_site1298]”, the “gcPBM binding intensity (ln)” value amounted to 10.2. With “AAAATACTAGATAGGGGAAAAAAAAAAAAAAAAAAA [CACACA_negctrl_site1732]”, the “gcPBM binding intensity (ln)” value was found to be 8.44.

“TATTGTAATATTAGCACACATTACCTCACTACAAAT [CACACA_site5419]”: the “gcPBM binding intensity (ln)” value was determined as 9.42. On to “AACATGAAAATATATGCATTTGTATATATATATATA [TGCATGCA_negctrl_site16]”, for which the “gcPBM binding intensity (ln)” value amounted to 9.11. Regarding “AATAAAACCCCGAAATCACACATTAAATGAAAAATA [CACACA_site4732]”, the “gcPBM binding intensity (ln)” value was found to be 9.61. For “AAAGCACCCATGCACACACACAAAGGAAAAGAAAAA [CACACA_site6249]” the value was 9.91. “ATAAATGATAAAATTGCATGTGAATGTGAAAATATT [TGCATGCA_site251]”: the “gcPBM binding intensity (ln)” value was found to be 9.49.

Turning to “TGGGAAAATAATATTTATTTTATATATAAATATATA [CACACA_negctrl_site121]”, the “gcPBM binding intensity (ln)” value was 8.79. The same measure for “AATTTAAAAGAAAAAGAAAAATAATAAACAGAAGCA [XGTACX_negctrl_site503]”: 9.68; for “ATAAAAAATAAATATATACATACATACATACATATA [XGTACX_negctrl_site507]”: 9.43; for “ATAAAACAAAAATATAAACACACATACATTGGTTTT [CACACA_site8809]”: 9.69. For “TTTTCAAAAATATACACACACATAAATATAGGTATA [CACACA_site6506]” the value was 9.79; for “TTGATTTACTATAGATGTACGTAAAATATAAATAAA [XGTACX_site8256]”, 8.95; for “GTTTCAAAATTAAACACACACAAAAAAAAAAAAAAA [CACACA_site2680]”, 9.22.

On to “TATTATATCTTTATTATTCATCTAAAATTTGTATTT [TGCATGCA_negctrl_site233]”, for which the “gcPBM binding intensity (ln)” value was 9.19. For “ACATTATATCTAAGTACACACATTAATTTTTTTTTT [CACACA_site7850]” the value was 9.5; for “CTATAACCTCTGTTCACACATATATCATAATTTACA [CACACA_site5446]”, 9.54; for “TTTATTTTGATTTAATGTACAAATAGTAAAACAAAA [XGTACX_site4789]”, 8.97. “TATTTAAAAGCATATACACACAACTGGAATGAAAAG [CACACA_site6128]”: the “gcPBM binding intensity (ln)” value is 9.79.

Take “TTGTAAGAAAAACACACACACACATATATATATATA [CACACA_site795]”: the “gcPBM binding intensity (ln)” value was 9.95. For “TTTTCGGATAATAATTGTACGAAACATTTAAAAAAA [XGTACX_site8898]”, the “gcPBM binding intensity (ln)” value was determined as 8.88. The same measure for “TATATAATATATATATGTACACATATACATTTTTAT [XGTACX_site2832]”: 9.26; for “TAAATAGTTATAAAAGTGCAAAAAAAAAAAAAAAAA [GTGCAC_site9550]”: 8.61. For “ACTCAAAATTATAATTGTACAAATGCTTTGTTTAAT [XGTACX_site3437]” the value was 9.28. The same measure for “ATCATATATGTTATTACACACGTTATGTTATTATAA [CACACA_site2712]”: 9.45. As to “TTAATTTCAAGTAGAAGTACTTTTATGATTGTGAGG [XGTACX_site1247]”, the “gcPBM binding intensity (ln)” value amounted to 8.94.

Turning to “GTGCATAGATGATATACACACAATATAATAGTATGT [CACACA_site5373]”, the “gcPBM binding intensity (ln)” value was found to be 9.54.
